The source of these data is PubChem BioAssay AID485344 (National Center for Advancing Translational Sciences (NCATS), 2010).

As usually defined, the inhibition is the relative decrease from the control value, in per cent.

Among all 340,000 compounds or so, about 6,900 (2%) were called active. Cut-off read from the data, not from the text of the source: active = inhibition above about 30%; inactive = below that, where a call was filed. This is a selection; strong and weak results do not stand in their true shares. Entries without a call were filed so in the source.

The target of the test is D(2) dopamine receptor (Homo sapiens) (UniProt P14416). Kind of test: HTS Assay for Allosteric Antagonists of the Human D2 Dopamine Receptor: Primary Screen for Antagonists. Note: 0% is about no effect. The following applies: HEK293 TREx D2 cells, calcium flux, dopamine EC80; at 10 µM; stronger effect = higher value. The procedure, abridged: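 Tetracycline-induced HEK293 T-REx cells expressing D2 force-coupled to calcium signalling were dye-loaded, exposed to compound for 180 s, then challenged with an EC80 of dopamine; calcium flux was followed kinetically for a further 180 s.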
UniProt P14416, sequence (P14416 whole entry, looked up): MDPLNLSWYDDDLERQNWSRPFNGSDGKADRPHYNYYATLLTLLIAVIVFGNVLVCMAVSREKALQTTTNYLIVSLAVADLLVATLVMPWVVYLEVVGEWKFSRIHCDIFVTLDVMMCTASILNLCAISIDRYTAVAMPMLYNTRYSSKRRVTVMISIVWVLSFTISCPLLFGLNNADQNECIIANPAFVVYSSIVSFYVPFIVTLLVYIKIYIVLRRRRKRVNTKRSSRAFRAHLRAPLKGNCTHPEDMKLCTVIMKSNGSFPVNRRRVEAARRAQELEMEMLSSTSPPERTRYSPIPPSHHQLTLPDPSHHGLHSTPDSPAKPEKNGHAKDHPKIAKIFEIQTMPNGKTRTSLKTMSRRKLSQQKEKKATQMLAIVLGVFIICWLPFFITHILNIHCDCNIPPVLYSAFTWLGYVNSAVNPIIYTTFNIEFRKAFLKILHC
For orientation: A change in cytosolic calcium serves as a functional read-out for many receptors and channels.
In the case of `COc1ccc(S(=O)(=O)Nc2cccc(-c3ccc(N4CCC(C)CC4)nn3)c2)cc1OC`, the inhibition came out at 0.818%.
Then `Cc1nc2ccccc2n1CC(O)COC1CCCCC1` (stereo not drawn), with active: 31.6%; and `CCn1c(=O)c2cc(C(=O)Nc3cc(OC)c(OC)c(OC)c3)sc2c2ccccc21`, with 8.89%; and `COc1ccc(C(=O)Nc2nc3nc(C)c(Cc4ccccc4)c(=O)n3[nH]2)cc1OC`, with -15.8%.
Then `CC1=C(C(=O)Nc2cccnc2)C(c2cccc(Br)c2)n2nc(SCc3ccccc3)nc2N1` (stereo not drawn), with 1.02%; and `CCOc1ccc(CNC(=O)C2CCN(S(=O)(=O)N3CCC(C)CC3)CC2)cc1OC`, with -6.55%.
As to `CCCc1cc(=O)n2[nH]c(NC(=O)c3ccc(C(C)(C)C)cc3)nc2n1`, the inhibition came to 0.565%.
Then `CC(=O)c1cccc(NC(=O)CN2C=NS(=O)(=O)c3ccc(C)cc32)c1`, with -3.51%; and `CC(C)c1ccc(S(=O)(=O)c2nnn3c2nc(N2CCN(C)CC2)c2sccc23)cc1`, with 11.2%.
Turning to `CC(=O)c1cccc(NC(=O)c2nc3ccccc3n(C)c2=O)c1`, the inhibition worked out at 3.44%.
In the case of `COc1cc(C2c3c(-c4ccccc4O)n[nH]c3C(=O)N2CCO)ccc1OCc1ccccc1` (stereo not drawn), the inhibition was -12.2%.
Then `CCOC(=O)c1ccccc1NC(=O)c1c2c(nc3ccccc13)C(=O)N(C1CCCCC1)C2`, with 0.183%; and `Nn1c(SC/C=C/c2ccccc2)nnc1-c1ccncc1`, with active: 37.9%.
Then `COc1cccc(CN2C(=O)c3ccccc3Sc3ccc(C(=O)N(C)Cc4ccccc4)cc32)c1`, with 5.38%; and `COc1ccc(-c2nnc(SCc3cc(=O)c4cc(C)cc(C)c4[nH]3)n2C)cc1`, with 16.1%; and `COc1ccccc1NC(=O)c1cc2ccc3cccnc3c2[nH]1`, with -12%.
Then `CCCCNC(=O)CSc1nc2ccccc2nc1Cc1ccc(C)cc1`, with 4.98%.
As for `CCOC(=O)c1nccnc1C(=O)Nc1cccc(C(F)(F)F)c1`, the inhibition is active: 31.9%.
For `COc1cccc2cc(-c3nc(Nc4cccc(C)c4)sc3C)c(=O)oc12`, the inhibition came to 0.865%.
Turning to `O=C(c1cccs1)c1cn(CCOc2ccccc2F)c2ccccc12`, the inhibition worked out at 8.87%.
Then `O=C(NCc1ccc2c(c1)CCN2C(=O)c1ccccc1)c1cc2ccccc2[nH]1`, with 11.7%; and `CCc1ccc(NC(=O)c2sc3ncnc(N(C)C4CCCCC4)c3c2C)cc1`, with -1.05%; and `CCOc1ccc(C2C(C(N)=O)=C(C)Nc3nc(SCc4ccccc4)nn32)cc1` (stereo not drawn), with 1.66%.
Then `COc1ccc(CNC(=O)Nc2ccc3c(c2)N(C)C(=O)c2ccccc2S3)cc1`, with 16.2%.
With `CC(=O)C1=C(c2ccc(C)cc2)N(C(C)=O)n2c(nnc2C2CCCCC2)S1`, the inhibition was -2.05%.
In the case of `O=C(CN1C(=O)COc2ccc(S(=O)(=O)N3CCCC3)cc21)N1CCN(c2ccccc2)CC1`, the inhibition came out at 3.41%.
Then `O=C(CSc1ncc2c(n1)-c1ccc(Cl)cc1N(Cc1ccccc1)S2(=O)=O)Nc1ccc(F)c(F)c1`, with -10.7%.
Then `CCOC(=O)C1CCCN(CC(=O)N2CCCc3c2c(=O)oc2ccc(OCc4ccccc4)cc32)C1` (stereo not drawn), with -2.17%; and `CCN1CCN(CCCNC(=O)c2cc3c(s2)-c2ccccc2OC3)CC1`, with -18%.
Then `COc1cc(OC)cc(C(=O)Nc2cc(-c3nc4cc(Cl)ccc4o3)ccc2Cl)c1`, with -6.6%; and `CCC(C)NCCOc1ccc(C)cc1[N+](=O)[O-]` (stereo not drawn), with active: 53.7%.
Consider `N#C/C(=C\c1ccc(-c2ccc(C(=O)O)cc2)o1)C(=O)Nc1ccccc1C(=O)O`, for which the inhibition was -8.96%.
Then `Cc1nn(CCC(=O)Nc2cc(F)ccc2F)c(=O)c2nn(-c3ccccc3)c(C)c12`, with 1.56%.
Then `CC1CCCCN1C(=O)CSc1n[nH]c(-c2ccccc2Cl)n1` (stereo not drawn), with -1.68%; and `O=C(CC1N=C2c3ccccc3N=C(SCc3cccc(Cl)c3)N2C1=O)NCc1ccc2c(c1)OCO2` (stereo not drawn), with 8.67%; and `COc1cc(Nc2nc(SCC(=O)c3ccc(Br)cc3)nc3ccccc23)cc(OC)c1`, with 24.6%.
Then `CCOC(=O)c1ccc2c(c1)N(CC(=O)N(C)c1ccccc1)C(=O)c1ccccc1S2`, with 17.7%.
Turning to `COc1ccccc1NC(=O)c1cc(=O)c2ccc(C)c(C)c2o1`, the inhibition is -2.95%.
Then `COc1ccc(-c2cn(-c3ccc(C)cc3)c(S(=O)(=O)CC(=O)Nc3ccc(F)cc3)n2)cc1`, with 8.24%.
Then `CCN1C(=O)c2cccc3c(N)ccc(c23)C1=O`, with active: 60.5%; and `Cc1ccc(Cc2c(C)nc3nc(SCC(=O)NC4CCC(C)CC4)nn3c2C)cc1` (stereo not drawn), with 1.38%; and `CC(=O)Nc1ccc(OCC(O)CN2CCN(c3ccccc3Cl)CC2)cc1` (stereo not drawn), with active: 76.3%.
Then `CCOc1ccc(CCNC(=O)c2cc3c(=O)oc4ccc(C)cc4c3s2)cc1OCC`, with 6.25%.
Consider `CC(C)(C)C(=O)Nc1cccc(-c2cn3cccnc3n2)c1`, for which the inhibition is 13.6%.
Then `COc1cccc(-n2c(=O)c3c(C)c(C)sc3n(CC(=O)NCc3ccc(C)cc3)c2=O)c1`, with -8.59%.
Then `CC(=O)N1CCc2c(sc(NC(=O)CSc3ccccc3)c2-c2nc3ccccc3s2)C1`, with 24.3%; and `Cc1cccc(CSc2ncc(Cl)c(C(=O)Nc3sc4c(c3C(N)=O)CCCC4)n2)c1`, with 6.02%; and `O=C(Cn1c(=O)nc(-c2ccccc2)c2ccccc21)Nc1cccc(C(F)(F)F)c1`, with 19.2%.
Then `COc1cccc(CNCCNC(=O)c2nonc2N)c1`, with 12.8%.
In the case of `Cc1cccc(NS(=O)(=O)c2c(C)nc3sccn3c2=O)c1C`, the inhibition is -10.6%.
Then `CCSc1nc2c([nH]c3ccccc32)c(=O)n1CC`, with -4.99%; and `O=C(NCc1ccccc1Cl)c1cc2c(s1)-c1ccc(Cl)cc1SC2`, with 6%; and `Cc1ccc(C(=O)CSc2nc(-c3ccccc3)nc3c2CCCC3)cc1`, with 8.37%.
As to `CCOc1ccccc1NC(=O)N1CC(CC)Oc2ccccc21` (stereo not drawn), the inhibition turned out to be 5.34%.
Then `CCOC(=O)CSc1nc(-c2ccc(C)cc2C)cc(-c2ccccc2)c1C#N`, with -4.74%; and `COc1ccc(OC)c(CNC(=O)c2ccc(Sc3ccc(C)cc3)c(N)c2)c1`, with 7.89%.
Then `Cc1ccc(NC(=O)CN2C(=O)CCc3cc(S(=O)(=O)N4CCOCC4)ccc32)cc1F`, with 10.4%.
Then `CCc1ccc(-n2nc(C)c3c(C)cc(=O)n(Cc4nc(-c5ccccc5)oc4C)c32)cc1`, with 8.39%; and `CCCc1nn2c(=O)cc(COC(=O)c3ccccc3NC(=O)COc3ccccc3F)nc2s1`, with -21.1%; and `COc1ccc(NC(=O)c2oc3ccc(S(=O)(=O)N4CCCCC4)cc3c2C)cc1`, with 3.79%.
As for `CCOc1ccc(CNC(=O)C2Cc3ccccc3N2C(=O)CC)cc1OC` (stereo not drawn), the inhibition was found to be 5.34%.
For the compound `Cc1cccc(CNC(=O)CCn2c(=O)c3cccn3c3ccc(F)cc32)c1`, the inhibition was found to be 1.68%.
Then `Cc1nc2c(C(=O)NCCCN(CC(C)C)CC(C)C)cnn2c(C)c1Cc1c(F)cccc1Cl`, with 13.5%; and `CCCOC(=O)c1c(NC(=O)c2nc3ncccn3n2)sc(C(N)=O)c1C`, with 0.632%.
Then `Cc1ccc(C(=O)Nc2cc3c(cc2C)n(C)c(=O)c(=O)n3C)cc1`, with 6.31%; and `CCOC(=O)c1c(-c2ccccc2)oc2ccc(NS(=O)(=O)c3cc(C)c(C)cc3C)cc12`, with 2.68%.
Then `CCOc1ccccc1CN1CCN(S(=O)(=O)c2ccccc2)CC1`, with -5.72%.
Regarding `CC(=O)c1cccc(NC(=O)c2oc3c(c2C)-c2nn(Cc4ccc(Cl)cc4)cc2CC3)c1`, the inhibition was -14.9%.
Then `O=C(CN1N=C(c2ccc(Cl)cc2)CCC1=O)NCCc1ccc(Cl)cc1`, with 13.2%; and `COCc1nc2ccccc2n1CCOc1cccc(C)c1`, with -5.1%; and `COc1ccc(S(=O)(=O)N2CCCN(CC(=O)Nc3ccc(NC(C)=O)cc3)CC2)cc1`, with -3.97%.
Then `Cc1ccccc1NC(=O)c1ccc2c(c1)c(C)c(C)n2Cc1ccccc1`, with 4.96%; and `COc1ccccc1NC(=O)CSC1=Nc2ccccc2C2=NC(CC(=O)NCc3ccco3)C(=O)N12` (stereo not drawn), with 11.4%; and `CCOc1ccc(N(CC)S(=O)(=O)c2cc(Br)cc3c2N(C(C)=O)C(C)C3)cc1` (stereo not drawn), with -9.71%.
Then `COc1ccc(NC(=O)CSc2nc(-c3ccco3)cc(C(F)(F)F)n2)cc1OC`, with 1.3%; and `Cc1ccccc1N1C(=O)CC(Nc2ccc3c(c2)OCO3)C1=O` (stereo not drawn), with active: 31.4%.
For the compound `CN(Cc1ccccc1)S(=O)(=O)c1nnc(NC(=O)c2cccc(Cl)c2)s1`, the inhibition is 14.6%.
Then `CCCCN(C)CCCNC(=O)Cn1ncc2c3ccccc3n(Cc3ccccc3)c2c1=O`, with 2.03%; and `Cc1cccc(NC(=O)CSc2nccn2Cc2ccc(F)cc2)c1C`, with 1.27%; and `CC1CCCc2sc3nc(SCC(=O)c4ccc(Br)cc4)nc(N)c3c21` (stereo not drawn), with 0.101%.
On to `O=c1c2ccccc2[nH]c(=S)n1CCCN1CCC(Cc2ccccc2)CC1`, for which the inhibition is active: 81.8%.
Then `COc1ccc(S(=O)(=O)c2cnc3ccc(Cl)cc3c2N2CCCCC2C)cc1` (stereo not drawn), with 3.58%; and `Cc1cc(C)cc(OCC(=O)Nc2c(C)ccc3nsnc23)c1`, with 6.27%; and `Cc1ccccc1NC(=O)CSc1nc2nccnc2c(=O)n1CCc1c[nH]c2ccccc12`, with 8.07%.
Consider `COc1cccc(N2CC(NC(=O)c3ccc(S(=O)(=O)N4CCOCC4)cc3)CC2=O)c1` (stereo not drawn), for which the inhibition was found to be 4.26%.
For `O=C(NCCc1ccccc1)c1nc(-c2ccc(Cl)cc2)n2c1CCCCC2`, the inhibition came to 10.1%.
For `COc1ccc(CNc2nc3c(-c4ccccc4)nnn3c3ccccc23)cc1`, the inhibition was -14.6%.
Turning to `O=C(NCc1ccc2c(c1)CCO2)Nc1cccc(C(F)(F)F)c1`, the inhibition is active: 39.8%.
Then `Cc1c(C(=O)Nc2nc(-c3ccc(F)cc3)ns2)oc2ccc(Cl)cc12`, with 7.51%; and `Cc1ccc(CCNC(=O)CS(=O)Cc2nc(-c3ccccc3Cl)oc2C)cc1` (stereo not drawn), with 24%; and `Cc1ccc2oc(C(=O)Nc3cccc(Cl)c3)cc(=O)c2c1`, with 5.12%.
Then `O=C(Cc1ccccc1)Nc1sc2c(c1C(=O)Nc1ccc(Br)cc1)CCC2`, with 2.45%.
Then `COc1ccccc1C(=O)Nc1ccccc1OCc1cc(=O)n2ccccc2n1`, with -6.88%; and `COc1ccccc1Nc1sc(C(=O)c2ccc(C)cc2C)c(N)c1S(=O)(=O)c1ccccc1`, with -9.88%; and `CCc1ccc(S(=O)(=O)c2nnn3c2nc(Nc2cc(OC)ccc2OC)c2sccc23)cc1`, with -10.2%.
For `COc1ccccc1N1CCN(CCC(=O)Nc2ccc(F)cc2)CC1`, the inhibition is active: 66.4%.
Then `O=S(=O)(NCCS(=O)(=O)N1CCN(c2ccccc2)CC1)c1ccc(Br)cc1`, with 1.84%.
Regarding `CCNc1nc(NCc2ccc(F)cc2)c2cnn(C)c2n1`, the inhibition was found to be 11.5%.
